The campaign covered roughly 190,000 compounds. About 270 (0.14%) were called active. The shares of active, inactive and inconclusive entries below differ from those in the screen.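 The calls were made as follows: active = GTP binding activity at least 20% away from the 100% baseline, either lowered as inhibitor or raised as activator; inconclusive = flagged as likely green fluorescent, judged across all proteins in the well; inactive = the rest.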
target: GTPase HRas (Homo sapiens) (UniProt P01112); assay: HRas wt fluorescent GTP binding changes, either direction – biochemical, wildtype, bead-based flow cytometry, multiplex, primary screen (AID 759); details: GST-Ras wt beads, Bodipy-FL-GTP binding, at 10 µM, actives lie on both sides;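 also: 0% = unlabeled GTP competition control and 100% = no-compound control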
Sequence of UniProt P01112 (P01112 whole entry, looked up): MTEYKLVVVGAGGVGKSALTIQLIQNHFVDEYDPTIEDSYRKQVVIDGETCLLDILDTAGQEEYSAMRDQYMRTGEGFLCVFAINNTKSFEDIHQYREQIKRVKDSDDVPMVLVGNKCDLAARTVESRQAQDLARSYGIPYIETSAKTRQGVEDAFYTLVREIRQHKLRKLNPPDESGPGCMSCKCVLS

Structure (SMILES)	GTP binding activity
O=C(OCc1nnc(-c2ccccc2)o1)c1ccc(Cl)cc1	inactive: 92%
COC(=O)C(C)Sc1ccc2nnc(-c3ccc(F)cc3)n2n1 (stereo not given)	inconclusive: 113%
COc1cccc(CN2CCNC(=O)C2CC(=O)NCCn2cccn2)c1OC (stereo not given)	inconclusive: 96%
O=C1C(=O)N(Cc2ccccc2)C(=O)N1CCN1C(=O)c2ccccc2C1=O	inconclusive: 93%
CN(C(=O)COc1ccccc1C(=O)NCCOc1ccccc1)c1ccccc1	inactive: 100%
Cc1ccc(NCC(=O)NNC2=NCCC2)c(C)c1	inactive: 100%
CCn1cc(C(=O)OCC(=O)c2cc(C)n(-c3cccc(C(F)(F)F)c3)c2C)c(=O)c2ccc(C)nc21	inactive: 80%
Cc1csc(Sc2ccc(S(=O)(=O)N3CCCC3)cn2)n1	inactive: 95%
Nc1nn2c(-c3ccccc3)cc(=O)[nH]c2c1N=Nc1ccc(O)cc1	inconclusive: 74%
CCOC(=O)c1cnc2nc(C)nn2c1N	inactive: 97%
N/C(=N\OC(=O)CC1CCCCC1)c1ccccn1	inconclusive: 105%
O=C(Nc1ccccc1)N1CCOCC1	inconclusive: 103%
COCCn1c(SCC(=O)Nc2cc(C)cc(C)c2)nnc1C(C)C	inconclusive: 102%
COC(=O)C1=C(C)N(c2cccc(Cl)c2)C(=O)C1	inconclusive: 101%
CCC(CC)C(=O)Nc1cccc(C(=O)Nc2ccc(OC)cc2[N+](=O)[O-])c1	inconclusive: 105%
CCCc1nc2cc(Cl)c([N+](=O)[O-])cc2o1	inconclusive: 99%
Cc1ccc(-c2csc3nc(C)n(N)c(=O)c23)o1	inconclusive: 104%
CN(C)S(=O)(=O)c1ccc(C(=O)OCC(=O)Nc2ccccc2OC(F)F)cc1	inconclusive: 103%
CC(=O)NC(c1ccco1)c1ccc2cccnc2c1O (stereo not given)	inconclusive: 88%
COc1ccccc1C(=O)O/N=C(/c1ccncc1)c1ccc([N+](=O)[O-])cc1	inactive: 97%

Structure (SMILES)	GTP binding activity
CNc1c([N+](=O)[O-])cnn1-c1ccc(Cl)cc1	inconclusive: 97%
O=C(COc1ccc(Br)cc1)c1ccc2c(c1)CCCC2	inconclusive: 98%
Cc1ccsc1/C=N/n1c(-c2ccncc2)n[nH]c1=S	inactive: 101%
Clc1ccc(SCCCCN2CCOCC2)cc1	inconclusive: 104%
CC1(C)Cc2c(sc(NC(=O)c3ccc(Br)o3)c2C#N)CO1	inactive: 104%
C=CCNC(=S)N/N=C/c1ccc(-c2ccc(OC)cc2)o1	inconclusive: 87%
O=c1c(/C=N/Nc2ccccc2)c(Sc2nnnn2-c2ccccc2)nc2ccccn12	inconclusive: 122%
CC(C)c1ccc(/C=C/C(=O)n2nnc3ccccc32)cc1	inconclusive: 89%
COc1cccc(/C=C2\SC(=S)N(c3cccnc3)C2=O)c1OC	inconclusive: 89%
O=C(/C(=C/c1ccccc1)c1ccccc1)N1CCCCC1	inconclusive: 112%
COc1ccc(CNC(=O)c2cc3c(C)nc4ccccc4c3o2)c(OC)c1	inconclusive: 95%
O=[N+]([O-])c1ccccc1CN1CCN(Cc2ccccn2)CC1	inconclusive: 93%
O=C(CSc1cccc(C(F)(F)F)c1)NC(=O)c1ccccc1	inconclusive: 103%
O=S(=O)(Nc1ccc(O)c(Sc2nc3ccccc3s2)c1)c1ccc(Cl)cc1	inconclusive: 94%
CCCc1nn(C)c(C(=O)Nc2cccc(C)c2)c1Cl	inconclusive: 102%
O=C(OCc1ccc2c(c1)OCO2)c1ccc(S(=O)(=O)N2CCCCC2)cc1	inconclusive: 104%
COC(=O)N/N=C/c1cc(Br)ccc1O	inconclusive: 97%
COc1ccc(CN2CCNC(=O)C2CC(=O)N2CCc3ccccc3C2)c(OC)c1 (stereo not given)	inconclusive: 94%
Cc1cc(Cl)ccc1OCC(=O)N1CCN(c2ncccn2)CC1	inconclusive: 92%
O=C(/C=C/c1ccc(-c2ccccc2)o1)c1ccccc1	inconclusive: 93%

Structure (SMILES)	GTP binding activity
Cc1c(Cl)c([N+](=O)[O-])nn1Cc1ccc(C(=O)N/N=C\c2cc(Cl)ccc2O)o1	inconclusive: 93%
O=C(c1ccc([N+](=O)[O-])cc1[N+](=O)[O-])N1CCCC1	inconclusive: 97%
O=C(Nc1cc(C(F)(F)F)ccc1N1CCCCC1)c1cccc([N+](=O)[O-])c1	inconclusive: 96%
Nc1c(C(=O)NCC2CCCO2)sc2nc3c(c(-c4ccco4)c12)CC/C3=C\c1ccco1 (stereo not given)	inconclusive: 88%
O=C(O)CC/C(=C\c1ccc(N2CCOCC2)c([N+](=O)[O-])c1)c1nc2ccccc2s1	active: 77%
CC(C)(C)SCCNC(=O)c1cccc([N+](=O)[O-])c1	inconclusive: 101%
COc1ccccc1-c1nnc(SCC(=O)c2ccc(C3CCCCC3)cc2)n1Cc1ccco1	inconclusive: 92%
Nc1ccc2c(c1)C(=O)C(=O)c1ccccc1-2	inactive: 85%
Cc1nc(NCc2ccccn2)c2ccccc2n1	inactive: 99%
O=[N+]([O-])c1ccc(Cl)cc1N1CCCCC1	inactive: 99%
O=C(Nc1cccc(O)c1)c1ccc(Br)c(S(=O)(=O)N2CCCCC2)c1	inconclusive: 95%
C=CCc1ccccc1OCC(O)CN1CCN(c2ccc(C)cc2)CC1 (stereo not given)	inconclusive: 96%
COC(=O)C1=C(C)N(CCc2c[nH]c3ccc(OC)cc23)C(=O)C1	inactive: 97%
COc1cc(/C=C(\C#N)c2nc3ccc(C)cc3[nH]2)cc([N+](=O)[O-])c1O	inactive: 83%
N#Cc1c(=O)c2nc(NCc3ccccc3)ncc2n2ccccc12	inactive: 83%
CCn1c(=O)cc(SCC(=O)N2CCC(C)CC2)c2ccccc21	inconclusive: 97%
CC(C)CNC(=O)C(=O)NNC(=O)C1CCCCC1	inconclusive: 106%
CCOC(=O)c1ccccc1NC(=O)Cn1c(-c2nonc2N)nc2ccccc21	inactive: 100%
Cc1c(NC(=O)c2ccc(-c3ccc([N+](=O)[O-])cc3Cl)o2)c(=O)n(-c2ccccc2)n1C	inconclusive: 95%
CCc1nnc(NS(=O)(=O)c2ccc(N/C=C\C(=O)c3ccc(F)cc3)cc2)s1	inconclusive: 90%

Source: PubChem BioAssay AID759 (NMMLSC, 2007)
